According to the supplement of paper PMC10126150:
Values marked as one replicate rest on one cluster of the flow cell; about a third of the high ones do not repeat.
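Further: ATP exposure 15 min at 22 °C before imaging.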

The sequences below were run on ATP (assay: switch fluorescence ratio, 500 uM ATP over buffer (Cy3 cluster intensity, sum of 5 cycles each) (fold (ratio)); higher = stronger signal-on switching upon ATP binding; sequences stand for … in TCGTCGGCAGCGTCAGATGTGTATAAGAGACAGTTTTTTTTTTTTTTTTTTTTTTTTT…TC). Conditions: aptamer strand: ATP DNA aptamer (quencher-CACCTGGGGGAGTATTGCGGAGGAAGG + anchor), 100 nM annealed; ATP concentration: 500 uM; one replicate.
Procedure, shortened: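 Cy3-labelled switching-strand clusters on a modified Illumina MiSeq flow-cell were annealed to 100 nM quencher-labelled ATP aptamer, imaged in selection buffer, then imaged after 15 min with 500 uM ATP at 22 °C. Five buffer/ATP cycles ran, with NaOH stripping and re-annealing between them. The fluorescence ratio is summed target-cycle over summed buffer-cycle Cy3 intensity per cluster, averaged per switch-domain sequence. Clusters outside 100-1000 RFU were excluded.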
CGATATCTCC showed a switch fluorescence ratio of 1.49. CGATATTCGC showed a switch fluorescence ratio of 1.05. Work on CGATCATTTG yielded a switch fluorescence ratio of 0.998. In the case of CGATCGGCGC, the switch fluorescence ratio is reported as 1.04. In the case of CGATCTGAGA, the switch fluorescence ratio is reported as 1. In the case of CGATCTTTTG, the switch fluorescence ratio is reported as 0.954. CGATGAGTTG was tested, and the switch fluorescence ratio was 0.972. For CGATGCAGCT, the switch fluorescence ratio was 1.05. In the case of CGATGGACGT, the switch fluorescence ratio is reported as 0.987. In the case of CGATGGGAAG, the switch fluorescence ratio is reported as 0.992. CGATGTAAAT was tested, and the switch fluorescence ratio was 1.05. CGATTAGAGA showed a switch fluorescence ratio of 0.971. With CGATTATTT the switch fluorescence ratio was 1.01. For CGATTCGCTG, the switch fluorescence ratio was 0.974. In the case of CGATTGTTGG, the switch fluorescence ratio is reported as 1.01. With CGCAAAATGC the switch fluorescence ratio was 3.15. Sequence CGCAAGAGTC has a switch fluorescence ratio of 4.45. CGCAATGGAA showed a switch fluorescence ratio of 2.45. With CGCACACAGT the switch fluorescence ratio was 1.03. With CGCACACGTT the switch fluorescence ratio was 0.966. In the case of CGCACAGGGT, the switch fluorescence ratio is reported as 1.25. Sequence CGCACCACGT has a switch fluorescence ratio of 1.04. For CGCACGGGAT, the switch fluorescence ratio was 1.12. With CGCACTCCAT the switch fluorescence ratio was 1.95. In the case of CGCACTGGCT, the switch fluorescence ratio is reported as 1.04. CGCAGACCGC showed a switch fluorescence ratio of 1.27. For CGCAGGATCC, the switch fluorescence ratio was 1.16. CGCAGGTGTC was tested, and the switch fluorescence ratio was 1.83. With CGCAGTATGT the switch fluorescence ratio was 1.12. Sequence CGCATCCTAG has a switch fluorescence ratio of 1.07. CGCATCGGCG showed a switch fluorescence ratio of 1.04. CGCATCTT was tested, and the switch fluorescence ratio was 1.11. For CGCATGACGA, the switch fluorescence ratio was 1.24. For CGCATTCGTA, the switch fluorescence ratio was 1.02. In the case of CGCCACCAGT, the switch fluorescence ratio is reported as 1.71. In the case of CGCCAGCTCT, the switch fluorescence ratio is reported as 1.05. With CGCCATGTCG the switch fluorescence ratio was 1. CGCCCACGGT was tested, and the switch fluorescence ratio was 1.54. CGCCCCGGAT was tested, and the switch fluorescence ratio was 1. CGCCCCTCGT was tested, and the switch fluorescence ratio was 1.12. CGCCCGAGCT gave a switch fluorescence ratio of 1.22. Sequence CGCCCGTATT has a switch fluorescence ratio of 1.02. Sequence CGCCCTGATG has a switch fluorescence ratio of 1.24. Sequence CGCCCTTTCA has a switch fluorescence ratio of 1.04. Sequence CGCCGAGGTT has a switch fluorescence ratio of 1.02. CGCCGCGTCT showed a switch fluorescence ratio of 1.05. CGCCGGCCTT was tested, and the switch fluorescence ratio was 1.06. For CGCCTAGTCA, the switch fluorescence ratio was 1.01. CGCCTATTTA showed a switch fluorescence ratio of 1.02. Sequence CGCCTCTGT has a switch fluorescence ratio of 0.999. Sequence CGCCTGAACT has a switch fluorescence ratio of 1.05. CGCCTTATAG showed a switch fluorescence ratio of 1.09. CGCCTTCTTG gave a switch fluorescence ratio of 1.01. Work on CGCGAAATTT yielded a switch fluorescence ratio of 0.995. Work on CGCGAACCGG yielded a switch fluorescence ratio of 1.02. Sequence CGCGAAGTAG has a switch fluorescence ratio of 1.01. In the case of CGCGAATGTT, the switch fluorescence ratio is reported as 0.999. Sequence CGCGACGGCC has a switch fluorescence ratio of 1.02. For CGCGAGAGCA, the switch fluorescence ratio was 0.994. Sequence CGCGAGGATT has a switch fluorescence ratio of 1.02. For CGCGATAGGG, the switch fluorescence ratio was 1.25. Sequence CGCGATCGGC has a switch fluorescence ratio of 1.19. CGCGCGATAT was tested, and the switch fluorescence ratio was 1.12. In the case of CGCGCGCATA, the switch fluorescence ratio is reported as 1.44. For CGCGCGCTTG, the switch fluorescence ratio was 1. In the case of CGCGCTAACA, the switch fluorescence ratio is reported as 1.02. For CGCGCTAGAA, the switch fluorescence ratio was 1.08. In the case of CGCGCTTGAC, the switch fluorescence ratio is reported as 1.43. In the case of CGCGGAGCG, the switch fluorescence ratio is reported as 0.984. Sequence CGCGGCGCAT has a switch fluorescence ratio of 1.05. Work on CGCGGCGCCC yielded a switch fluorescence ratio of 0.989. CGCGGGAGGC gave a switch fluorescence ratio of 0.949. For CGCGGGCGTG, the switch fluorescence ratio was 1. For CGCGGGGCAT, the switch fluorescence ratio was 1.02. Work on CGCGGTAAAC yielded a switch fluorescence ratio of 1.57. CGCGGTAAC was tested, and the switch fluorescence ratio was 2.77. With CGCGTCGTCA the switch fluorescence ratio was 0.973. Work on CGCGTCTCGA yielded a switch fluorescence ratio of 1.03. CGCGTTAAGC gave a switch fluorescence ratio of 0.959. With CGCGTTCCTT the switch fluorescence ratio was 1.03. CGCTAAAAAA was tested, and the switch fluorescence ratio was 1.62. CGCTAAAATC showed a switch fluorescence ratio of 1.18. With CGCTAAACCT the switch fluorescence ratio was 2.62. CGCTACACAG showed a switch fluorescence ratio of 1.06. CGCTAGCCAC gave a switch fluorescence ratio of 1.29. Work on CGCTCCGGAT yielded a switch fluorescence ratio of 1.21. Sequence CGCTCTCCCT has a switch fluorescence ratio of 3.04. CGCTGACATA gave a switch fluorescence ratio of 1.09. CGCTGATATT gave a switch fluorescence ratio of 1.08. For CGCTGCAACT, the switch fluorescence ratio was 2.28. Work on CGCTGCATCC yielded a switch fluorescence ratio of 2.17. In the case of CGCTGCGAGG, the switch fluorescence ratio is reported as 1.04. Work on CGCTGCGGAA yielded a switch fluorescence ratio of 1. Work on CGCTGCTTAT yielded a switch fluorescence ratio of 1.21. CGCTGGACGT was tested, and the switch fluorescence ratio was 1.01. With CGCTGGAGG the switch fluorescence ratio was 0.99. In the case of CGCTGGCCTA, the switch fluorescence ratio is reported as 0.934. In the case of CGCTTACCAG, the switch fluorescence ratio is reported as 1.01. For CGCTTCTTCA, the switch fluorescence ratio was 1.03. CGCTTGATGG showed a switch fluorescence ratio of 0.972. CGCTTGGTGC showed a switch fluorescence ratio of 1.21. CGCTTTTTGG gave a switch fluorescence ratio of 0.975. For CGGAAAGTTC, the switch fluorescence ratio was 1. CGGAACAGTA showed a switch fluorescence ratio of 1.05. Sequence CGGAACGGTA has a switch fluorescence ratio of 1.01. CGGAACGGTT showed a switch fluorescence ratio of 1.01. CGGAAGCAGG gave a switch fluorescence ratio of 1.16. CGGAAGCGTT showed a switch fluorescence ratio of 1.03. CGGACATGTC gave a switch fluorescence ratio of 0.989. For CGGACGGTAT, the switch fluorescence ratio was 1.16. Sequence CGGACGGTGT has a switch fluorescence ratio of 1.03. In the case of CGGACGTTTG, the switch fluorescence ratio is reported as 0.98. CGGACTAAAA was tested, and the switch fluorescence ratio was 1.05. Sequence CGGACTCGCT has a switch fluorescence ratio of 1.01. In the case of CGGAGCGAGA, the switch fluorescence ratio is reported as 2.21. In the case of CGGAGTGGCC, the switch fluorescence ratio is reported as 0.976. For CGGAGTTAGG, the switch fluorescence ratio was 0.99. Sequence CGGAGTTCG has a switch fluorescence ratio of 1.02. CGGATAAAAG was tested, and the switch fluorescence ratio was 0.98. Sequence CGGATAAGTA has a switch fluorescence ratio of 0.962. Work on CGGATACGGG yielded a switch fluorescence ratio of 1.01. With CGGATATAAA the switch fluorescence ratio was 1. CGGATCGTTA was tested, and the switch fluorescence ratio was 1.01. CGGATCTGCC gave a switch fluorescence ratio of 0.993. Work on CGGATTAGCT yielded a switch fluorescence ratio of 0.998. CGGATTATGG was tested, and the switch fluorescence ratio was 1.02. CGGATTGTC was tested, and the switch fluorescence ratio was 0.994. For CGGATTGTTG, the switch fluorescence ratio was 0.965. For CGGCAAACCT, the switch fluorescence ratio was 2.53. CGGCAAATCT gave a switch fluorescence ratio of 1.38. Sequence CGGCAACCGA has a switch fluorescence ratio of 0.979. CGGCACTCGT gave a switch fluorescence ratio of 0.985. CGGCATCATG showed a switch fluorescence ratio of 1.04. CGGCATGAG showed a switch fluorescence ratio of 0.979. CGGCATGCAT was tested, and the switch fluorescence ratio was 1.02. CGGCCAGGGA showed a switch fluorescence ratio of 1.07. In the case of CGGCCTAACA, the switch fluorescence ratio is reported as 0.979. Work on CGGCCTTGAG yielded a switch fluorescence ratio of 0.937. In the case of CGGCGAGACT, the switch fluorescence ratio is reported as 1.35. Sequence CGGCGATCCC has a switch fluorescence ratio of 1.01. Sequence CGGCGCATG has a switch fluorescence ratio of 1.35. With CGGCGCGTGT the switch fluorescence ratio was 0.935. For CGGCGGATCG, the switch fluorescence ratio was 0.997. For CGGCGGTTTC, the switch fluorescence ratio was 0.997. Sequence CGGCGTCCTT has a switch fluorescence ratio of 0.949. In the case of CGGCTCGAAG, the switch fluorescence ratio is reported as 1.69. In the case of CGGCTCTTTT, the switch fluorescence ratio is reported as 1.05. In the case of CGGCTTACCG, the switch fluorescence ratio is reported as 0.965. CGGCTTACGG gave a switch fluorescence ratio of 1. For CGGGAAAGAA, the switch fluorescence ratio was 1.02. Work on CGGGAACATC yielded a switch fluorescence ratio of 1.01. With CGGGAAG the switch fluorescence ratio was 1.04. CGGGAAGCTG was tested, and the switch fluorescence ratio was 0.906.
